These results are taken from PubChem BioAssay AID1508623 (National Center for Advancing Translational Sciences (NCATS), 2021).

The whole screen tested about 48,000 compounds, of which about 450 (0.94%) were called active. Another 19% or so got no clear call; they are omitted. Calls come from the whole dose curve; as a rule, active = well fitted inhibition curve with a large enough effect; inconclusive = small, poorly fitted or top-dose-only effect; inactive = no such curve, though single readings can be large or run the other way. Some of the results follow.
Potency is the fitted concentration of half-maximal effect.

The test in a line: Primary qHTS for Identification of Small Molecule Inhibitors of Huntingtin Promoter Activity. Note: nearly all actives have a fitted effect of over 50% in size. Conditions: HEK293 HTT promoter firefly luciferase reporter (activity 0% = vehicle and -100% = no light), 24 h; series mostly up to 57.5 µM; activity change, negative = inhibition: at the top concentration. Summed up: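 Luminescence was read after Dual-Glo reagent and a 10 min room-temperature incubation. Values were normalized to vehicle (0% activity) and zero RLU (-100% activity). Reporter HEK293 cells had been exposed to compounds (up to 57.5 uM final) for 24 h.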
Background: Quantitative high-throughput screening tests each substance at several concentrations.
For the compound `COc1cccc(Nc2nnc(-c3cc4ccc(O)cc4oc3=O)s2)c1`, the “activity change, negative = inhibition” value is inactive: 5.07%.
The same measure, in the same setting: the value for `CCOc1ccc(NC(=O)Cn2c(=O)n(CCc3ccccc3)c(=O)c3c4c(sc32)CCCC4)cc1` was inactive: -3.52%.
On the same count and under the same terms, the value for `CC(=O)c1ccc(NC(=O)Cn2nc(C(F)(F)F)c3c2CCC3)cc1` was inactive: 9.28%; that for `O=C(Cn1ncc2c3ccccc3n(Cc3ccccc3)c2c1=O)NCc1cccs1` was inactive: 7.46%.
For the compound `CCOC(=O)C1=C(CN2CCN(c3ccc(Cl)cc3)CC2)NC(=O)NC1c1ccc(OC)cc1` (stereo not drawn), the “activity change, negative = inhibition” value was inactive: -20.1%.
`Cc1ccc(Cl)cc1N1CCN(C(=O)Cn2cnc3onc(-c4ccc(F)cc4)c3c2=O)CC1`: the “activity change, negative = inhibition” value was inactive: -21.4%.
Same read-out and setting: the value for `CCCCNC(=O)CCC1N=C2c3ccccc3N=C(SCC(=O)NCCc3ccc(OC)c(OC)c3)N2C1=O` (stereo not drawn) was inactive: -15.6%; that for `CCN(CC)CCNC(=O)CCn1c(=O)c2cccn2c2cccnc21` was inactive: -3.37%; that for `Cc1ccc2nc(-c3ccc(NC(=O)Cc4ccccc4)cc3)sc2c1` was inactive: 59.9%.
Still for that read-out and setting: the value for `O=C(CSc1nc2ccsc2c(=O)n1Cc1ccc(F)cc1)NCc1ccc(Cl)cc1` was inactive: -6.92%; that for `CN1c2ccc(Cl)cc2-c2nc(SCC(=O)NCc3ccc(F)cc3)ncc2S1(=O)=O` was inactive: -7.74%.
Same read-out and setting: the value for `CC1=C(C(=O)Nc2ccc(C)cc2C)C(c2ccccc2)n2nc(SCC(=O)c3ccc(C)cc3)nc2N1` (stereo not drawn) was inactive: -2.19%; that for `Cc1cc(Nc2ccc(Br)cc2)n2nc(-c3ccccc3C)nc2n1` was inactive: -7.85%.
Consider `CCc1ccccc1NC(=O)CCNS(=O)(=O)c1ccc2c(c1)CCCC(=O)N2`, for which the “activity change, negative = inhibition” value was inactive: -5.94%.
Same read-out and setting: with `Oc1ccc(-c2nc(-c3ccc(F)cc3)c(-c3ccncc3)[nH]2)cc1` the figure was inactive: -2.91%.
On the same count and under the same terms, the value for `CCN1CCN(c2ncc3c(n2)CCN(Cc2cc(Br)cs2)C3)CC1` was inactive: -20%.
Same read-out and setting: the value for `O=C(NCC(c1ccc2c(c1)OCO2)N1CCOCC1)c1ccccc1` (stereo not drawn) was inactive: -16.2%; that for `Cc1c(O)nc(SCC(=O)Nc2ccc(Cl)cc2Cl)n(-c2ccc(F)cc2)c1=O` was inactive: -13.5%; that for `Cc1nn(C)c2c1c(C(F)(F)F)cc(=O)n2CC(=O)NCc1ccc(OC(C)C)cc1` was inactive: -19.5%.
Take `CCC(C)c1ccc(OCC(=O)Nc2cccc3ccc(C)nc23)cc1` (stereo not drawn): the “activity change, negative = inhibition” value is inactive: -16.9%.
For `Cc1cn(C)c(CC(=O)NCc2cccc(Cl)c2)c1C(=O)O`, the “activity change, negative = inhibition” value was inactive: -12.3%.
In the case of `CC(C)(C)c1ccc(S(=O)(=O)N2CCC(Oc3ccc(-n4cnnn4)cc3)CC2)cc1`, the “activity change, negative = inhibition” value is inactive: 0.667%.
Same read-out and setting: the value for `O=C(CNC(=O)c1ccc(Cl)cc1)OCc1cc(=O)n2nc(C3CC3)sc2n1` was inactive: -16.1%.
On to `CC(C)c1ccc(C2Sc3ccccc3NC3=C2C(=O)c2ccccc23)cc1` (stereo not drawn), for which the Potency is active: 12.6 µM.
As for `COC(=O)c1cc(NC(=O)CCc2c(C)nc3c(c(C)nn3C(C)(C)C)c2C)cc(C(=O)OC)c1`, the “activity change, negative = inhibition” value was inactive: 13.7%.
The same measure, in the same setting: with `COc1ccc(Nc2oc(-c3ccc(COc4cccc(C)c4)o3)nc2C#N)cc1` the figure was inactive: -18.1%.
Take `Cn1nnnc1SCCCNCc1ccc(Cl)cc1`: the “activity change, negative = inhibition” value is inactive: 30.9%.
Same read-out and setting: with `COc1ccc(CCNC(=O)Cc2c(C)c3cc4c(C(C)(C)C)coc4c(C)c3oc2=O)cc1OC` the figure was inactive: 3.67%; with `Cc1ccc2c(c1)cc1c(=O)n(Cc3cccc(Cl)c3)nc(C)n12`, inactive: -8.67%.
Still for that read-out and setting: the value for `Cc1cc(C)c2c(c1)NC(=O)C2(O)c1c[nH]c2ccccc12` (stereo not drawn) was inactive: -13.6%.
Same read-out and setting: with `Cc1nc(N2CCOCC2)c2c(C(=O)N3CCN(c4ccccc4F)CC3)c(C)oc2n1` the figure was inactive: -9.68%.
As for `Cc1ccc(CN2COc3ccc4c(C)cc(=O)oc4c3C2)cc1`, the “activity change, negative = inhibition” value was inactive: -5.17%.
Same read-out and setting: with `CC1CCc2onc(C(=O)N3CCN(c4ccccc4)CC3)c2C1` (stereo not drawn) the figure was inactive: 7.59%; with `O=C(COc1ccccc1F)Nc1ccccc1C(=O)OCc1cc(=O)n2nc(C3CC3)sc2n1`, inactive: -5.15%; with `O=C(NCc1ccc(Cl)cc1)c1cc2c(s1)-c1ccccc1SC2`, inactive: -12.8%.
On the same count and under the same terms, the value for `COc1ccc(-c2nc3c(c(SCC(=O)Nc4cccc(O)c4)n2)Cc2c(CO)cnc(C)c2O3)cc1` was inactive: -5.66%.
Same read-out and setting: the value for `CCc1ccccc1NC(=O)Cn1c(=O)n(Cc2ccco2)c(=O)c2ccccc21` was inactive: -14%; that for `CCc1ccc(NC(=O)C2CCN(c3nn4cc(-c5ccc(OC)cc5)nc4s3)CC2)cc1` was inactive: 6.62%.
Turning to `Cc1ccc(N2C(=O)CC(c3ccccc3F)C3=C2COC3=O)cc1Cl` (stereo not drawn), the “activity change, negative = inhibition” value is inactive: -3.88%.
Same read-out and setting: with `c1ccc(-c2nc[nH]c2-c2ccccc2)cc1` the figure was inactive: -9.6%; with `CCCCCCCC(=O)OCC(O)CO` (stereo not drawn), inactive: -0.424%.
On to `Cc1cccc(S(=O)(=O)Nc2cccc(-c3ccc(N4CCCCC4)nn3)c2)c1`, for which the “activity change, negative = inhibition” value is inactive: 0.901%.
As for `CCN(CC)C(=O)Cn1c(=O)n(-c2ccc(Cl)c(Cl)c2)c(=O)c2c(C)c(C(=O)N(CC)CC)sc21`, the “activity change, negative = inhibition” value was inactive: 0%.
For `CCc1nnc2c(N3CCN(c4cccc(C)c4)C(C)C3)nc3ccccc3n12` (stereo not drawn), the “activity change, negative = inhibition” value is inactive: -27.4%.
Turning to `CC1CCN(c2nc3c(S(=O)(=O)c4ccccc4)nnn3c3ccc(Cl)cc23)CC1`, the “activity change, negative = inhibition” value is inactive: 10.2%.
Same read-out and setting: the value for `COc1ccc(NC(=O)c2ccc3c(c2)N(Cc2cccc(Cl)c2)C(=O)c2ccccc2S3=O)cc1Cl` (stereo not drawn) was inactive: -20.5%.
Regarding `Cc1c(C)n(Cc2ccccc2)c2ccc(C(=O)NCc3ccccc3F)cc12`, the “activity change, negative = inhibition” value is inactive: -9.64%.
The same measure, in the same setting: the value for `COc1ccccc1NC(=O)NCCCN1CCN(c2ccc(F)cc2)CC1` was inactive: -3.3%; that for `COc1ccc(C(=O)Nc2cccc(-c3cn4ccsc4n3)c2)cc1OC` was inactive: 39.6%; that for `CCCN1CCN(CCCNC(=O)c2ccc3c(c2)sc2nc(-c4ccc(OC)cc4)cn23)CC1` was inactive: 3.6%.
Same read-out and setting: with `CCS(=O)(=O)c1ccc(OC)c(C(=O)OC)c1` the figure was inactive: 2.95%; with `CC1=C(C(=O)NCc2ccccc2Cl)C2(CCCCCC2)OC1=O`, inactive: -9.42%; with `O=C(O)c1ccc2cc(-c3ccc(O)c(C45CC6CC(CC(C6)C4)C5)c3)ccc2c1`, inactive: -18.1%.
On the same count and under the same terms, with `Cc1ccc2c(CNCC(C)c3ccccc3)c(C(=O)O)n(Cc3ccccc3C)c2c1` (stereo not drawn) the figure was inactive: 8.62%; with `Cc1ccccc1Cn1c(CN2CCC(C(=O)NCc3cccnc3)CC2)cc2ccccc21`, inactive: 4.58%; with `CCOC(=O)C1CCN(C(=O)Cn2nc(C)n3c(cc4sccc43)c2=O)CC1`, inactive: -5.83%.
Take `O=C(NC[C@H](O)CO)c1ccncc1Nc1ccc(I)cc1F`: the “activity change, negative = inhibition” value is inactive: -14.8%.
With `Cn1c(SCC(=O)N2CCOCC2)ncc(C(=O)Nc2ccccc2)c1=O`, the “activity change, negative = inhibition” value is inactive: -3.45%.
In the case of `COC(=O)c1ccccc1NC(=O)Cn1cnc2sc(C)c(S(=O)(=O)N3CCC(C)CC3)c2c1=O`, the “activity change, negative = inhibition” value is inactive: -27.5%.
With `Cc1nc2ccccn2c(=O)c1NC(=O)c1cccc(F)c1`, the “activity change, negative = inhibition” value is inactive: 11.7%.
Still for that read-out and setting: the value for `COc1ccc(CCNC(=O)c2ccc3c(c2)sc2nc(-c4ccccc4)cn23)cc1OC` was inactive: 23%; that for `Cc1ccccc1N(C)S(=O)(=O)c1nnc(NC(=O)c2ccco2)s1` was inactive: -6.32%; that for `CCOC(=O)c1cc(-c2ccc(OC)cc2)n(CCC(=O)NCCc2ccccc2)c1C` was inactive: 2.9%.
